Results reported in paper PMC11328492.
Like-named read-outs stand apart in the source and are kept apart here. Results are given in words; binding and its absence hold for the method and conditions named. In cells and extracts the contact can be indirect. Some results given as binding are weak or reduced against the parent protein; the word gives no strength. For some of these results: Sequences can lack the tags named with a protein. One block for each molecule: values may come before it.

Sequences of proteins named here, by UniProt entry; tags and fusion partners are left off. A change or cut given only in a name is not applied to a line headed by its entry.
UniProt Q03181: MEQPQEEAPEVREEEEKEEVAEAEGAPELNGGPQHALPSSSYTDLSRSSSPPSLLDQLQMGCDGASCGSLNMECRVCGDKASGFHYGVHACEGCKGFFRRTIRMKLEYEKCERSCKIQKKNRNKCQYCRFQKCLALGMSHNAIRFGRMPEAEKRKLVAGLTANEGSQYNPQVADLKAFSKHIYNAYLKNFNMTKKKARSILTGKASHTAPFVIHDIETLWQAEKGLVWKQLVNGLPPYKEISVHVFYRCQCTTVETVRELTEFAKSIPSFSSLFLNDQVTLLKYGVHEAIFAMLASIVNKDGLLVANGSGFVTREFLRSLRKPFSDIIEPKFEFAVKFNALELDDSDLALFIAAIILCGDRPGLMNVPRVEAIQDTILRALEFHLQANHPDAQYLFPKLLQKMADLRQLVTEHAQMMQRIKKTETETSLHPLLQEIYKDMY

Key:
[1] = molecular target: T1, Zinc finger DHHC-type palmitoyltransferase 6 (ZDHHC6), endogenous (human (endogenous in HCT116, SNU-C2A, SW48, HT-29, LS1034, Caco-2)) (UniProt Q9H6R6); assay: co-IP; endogenous proteins; lysates (E1A lysis buffer) of HCT116 (Fig. 5B), SNU-C2A, SW48, HT-29, LS1034 and Caco-2 (Fig. 5C) immunoprecipitated with ZDHHC6 or IgG antibodies, western blot; mutual co-IP in HCT116 (Fig. 7F)
T1 sequence: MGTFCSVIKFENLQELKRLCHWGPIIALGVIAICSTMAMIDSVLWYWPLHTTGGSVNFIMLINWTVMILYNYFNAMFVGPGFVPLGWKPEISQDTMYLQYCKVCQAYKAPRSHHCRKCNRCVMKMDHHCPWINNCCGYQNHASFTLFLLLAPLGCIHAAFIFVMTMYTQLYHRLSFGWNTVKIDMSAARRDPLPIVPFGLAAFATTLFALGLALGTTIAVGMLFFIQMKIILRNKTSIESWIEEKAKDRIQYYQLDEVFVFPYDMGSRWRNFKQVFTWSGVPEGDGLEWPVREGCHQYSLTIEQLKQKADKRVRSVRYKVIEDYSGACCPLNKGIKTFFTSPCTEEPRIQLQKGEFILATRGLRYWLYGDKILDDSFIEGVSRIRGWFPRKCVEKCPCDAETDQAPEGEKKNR

[2] = molecular target: T2, HA-ZDHHC6 (3×HA, pcDNA3.4) (human) (UniProt Q9H6R6); assay: co-IP; PPARγ and HA-ZDHHC6 co-transfected; IP of HA; Caco-2 by the text, HCT116 by the legend
T2 sequence: T1 sequence

[3] = molecular target: T3, Flag-ZDHHC6 (3×Flag, pcDNA3.4), expressed in CRC cells (human) (UniProt Q9H6R6); assay: co-IP; Flag-ZDHHC6 and His-PPARγ overexpressed in HCT116, Caco-2, SNU-C2A and HT-29 for 24 h; lysates immunoprecipitated with Flag and/or His antibodies, blotted with His or Flag antibodies
T3 sequence: T1 sequence

[4] = molecular target: Peroxisome proliferator-activated receptor gamma (PPARγ), endogenous (human (endogenous in HCT116, SNU-C2A, SW48, HT-29, LS1034, Caco-2)) (UniProt P37231); assay: co-IP; endogenous proteins; lysates (E1A lysis buffer) of HCT116 (Fig. 5B), SNU-C2A, SW48, HT-29, LS1034 and Caco-2 (Fig. 5C) immunoprecipitated with ZDHHC6 or IgG antibodies, western blot; mutual co-IP in HCT116 (Fig. 7F)
[5] = molecular target: His-PPARγ, expressed in CRC cells (human) (UniProt P37231); assay: co-IP; Flag-ZDHHC6 and His-PPARγ overexpressed in HCT116, Caco-2, SNU-C2A and HT-29 for 24 h; lysates immunoprecipitated with Flag and/or His antibodies, blotted with His or Flag antibodies
[6] = molecular target: T1, Zinc finger DHHC-type palmitoyltransferase 6 (ZDHHC6), endogenous (human (endogenous in HCT116, SNU-C2A, SW48, HT-29, LS1034, Caco-2)); assay: co-IP; endogenous proteins; lysates (E1A lysis buffer) of HCT116 (Fig. 5B), SNU-C2A, SW48, HT-29, LS1034 and Caco-2 (Fig. 5C) immunoprecipitated with ZDHHC6 or IgG antibodies, western blot; mutual co-IP in HCT116 (Fig. 7F); remark: listed apart in the source

binding [1]: binds
Molecule: Peroxisome proliferator-activated receptor gamma (PPARγ), endogenous (from UniProt P37231 1-505)

binding [2]: binds
Molecule: PPARγ co-transfected with HA-ZDHHC6 (from UniProt P37231 1-505)

binding [1]: no binding
Molecule: PPARδ, endogenous (from UniProt Q03181 1-441)

binding [3]: binds
Molecule: His-PPARγ, expressed in CRC cells (from UniProt P37231 1-505)

binding [4]: binds
B1: Zinc finger DHHC-type palmitoyltransferase 6 (ZDHHC6), endogenous (enzyme, UniProt Q9H6R6 1-413)
chain: T1 sequence

binding [5]: binds
B2: Flag-ZDHHC6 (3×Flag, pcDNA3.4), expressed in CRC cells (enzyme, UniProt Q9H6R6 1-413)
chain: T1 sequence

binding [6]: no binding
B3: PPARα, endogenous (protein, UniProt Q07869 1-468)
chain: MVDTESPLCPLSPLEAGDLESPLSEEFLQEMGNIQEISQSIGEDSSGSFGFTEYQYLGSCPGSDGSVITDTLSPASSPSSVTYPVVPGSVDESPSGALNIECRICGDKASGYHYGVHACEGCKGFFRRTIRLKLVYDKCDRSCKIQKKNRNKCQYCRFHKCLSVGMSHNAIRFGRMPRSEKAKLKAEILTCEHDIEDSETADLKSLAKRIYEAYLKNFNMNKVKARVILSGKASNNPPFVIHDMETLCMAEKTLVAKLVANGIQNKEAEVRIFHCCQCTSVETVTELTEFAKAIPGFANLDLNDQVTLLKYGVYEAIFAMLSSVMNKDGMLVAYGNGFITREFLKSLRKPFCDIMEPKFDFAMKFNALELDDSDISLFVAAIICCGDRPGLLNVGHIEKMQEGIVHVLRLHLQSNHPDDIFLFPKLLQKMADLRQLVTEHAQLVQIIKKTESDAALHPLLQEIYRDMY
